Laboratory results reported in the supplement of paper PMC10126150.
Values marked as one replicate rest on one cluster of the flow cell; about a third of the high ones do not repeat.

System: ATP
Experiment: switch fluorescence ratio, 500 uM ATP over buffer (Cy3 cluster intensity, sum of 5 cycles each) (fold (ratio)); higher = stronger signal-on switching upon ATP binding; sequences stand for … in TCGTCGGCAGCGTCAGATGTGTATAAGAGACAGTTTTTTTTTTTTTTTTTTTTTTTTT…TC
Settings: aptamer strand: ATP DNA aptamer (quencher-CACCTGGGGGAGTATTGCGGAGGAAGG + anchor), 100 nM annealed; ATP concentration: 500 uM; one replicate
Summary of the method: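 Exposure to 500 uM ATP lasted 15 min at 22 °C before imaging, and a selection-buffer image was taken beforehand, for Cy3-labelled switching-strand clusters on a modified Illumina MiSeq flow-cell annealed to 100 nM quencher-labelled ATP aptamer. Five buffer/ATP cycles were run with NaOH stripping and re-annealing between them. The fluorescence ratio per cluster is summed target-cycle over summed buffer-cycle Cy3 intensity, averaged per switch-domain sequence. Clusters outside 100-1000 RFU were excluded.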

Sequence	switch fluorescence ratio
TGGCCTGAAC	1.1
CGGGGCGCAC	0.953
GGTTCGACGA	0.924
CCATTAGATT	0.98
GTTGGGGAAC	1.02
ATGATGCCG	0.993
TGCATGACGA	1.09
CCTAAACAGT	1.09
GCACTATTCT	1.05
TGCCCCCCTA	1.03
ACTTAAGAGC	0.946
TGTTAGTGTG	0.933
TATATTAGTC	1.04
TATCTGTTCC	1.07
GTAGATTATA	0.975
TCGGTTTCTT	0.994
GGTAACGGTA	1.01
TCGTGCTCCT	1.01
CGCTGTTTAG	1.02
CATGGCCCCG	1.01
TGGTCACATC	0.995
CCCAGGGCTA	1.49
GCCGTTGAGA	1.03
TGTGGCAATA	2.21
CGGGGTTCTG	1.02
AGTATCTCTC	1.03

Sequence	switch fluorescence ratio
GGACGGGGTG	0.974
ATACAGCATC	1.08
ATTGGCGTCC	1.01
AAGTACTCCC	1.37
TTACGTTGTT	0.988
ATTACTGACA	1.12
GGATGAGGAA	1.05
ACTTGCGTAG	1.04
CTCCTCCTGA	1.53
AGTTTTATCT	0.956
ACTGTTTCGA	1.03
TTAGGCATCA	1.01
ATAGAATTGC	1.03
TGGTATAC	1.13
GTATTAGTTC	0.958
AGTAGTCCTG	1.02
ATTCCCCGGC	1.4
CCTATAATGA	1.01
ATGGCTTGTG	0.996
CTTTGGCCTT	1.01
CGTCATATC	1.35
ACGCGCGCTG	0.981
CAGATTCGTG	0.966
TCAACGTAT	1.04
CGTCCGGGGG	1.13
GTGTGTCCAA	0.999

Sequence	switch fluorescence ratio
CAAAAGGGTT	0.993
GCTTGTCTTG	0.999
TGAGGAGCCT	1.04
CCGTCTGGCA	1.07
GTGGGCCTT	0.992
ACGTTGGGGT	1.02
CAACTAGGGT	0.989
AGCTGTTTGT	0.995
CAGGGCCGCG	1.01
TTTCCATAC	2.41
GCGCTGTATC	1.03
AGACTGAGCT	0.996
GATCACTGAT	1.09
CGGTCGAGTG	0.976
AAGCCTTAGA	1.03
CACGTGTTCG	1.05
TTACCGGCGA	1.02
CAATCGGATG	1.03
TGACGAATTA	1.04
TATCTGTTAA	0.962
AAGTCTTATC	0.968
AGGAATCAGT	0.988
TATAAGTGCG	1
ATCGACTATA	1.07
ATACTCAGTA	1.01
TCAACGGGCG	1.09

Sequence	switch fluorescence ratio
CGTTTGTTAA	1.05
TAGGCACTTA	1.06
GATCTAAAAA	0.985
TGCTCTCACT	1.03
GAATACGACG	1.03
ATGGCAGTAA	1.04
GGTCAAATCG	0.957
TGACGTTGTC	0.989
ACTTGGCCTC	0.995
TGATACGCTC	1.13
CTTAGTCGGT	1.01
TCTGTAATTG	1.01
CTTGACCTTG	0.98
GCCAAAAGAC	1.22
AATGGATTTA	0.989
TTTGCTTGGA	1.07
ATTGGATCAA	1.05
TGCGGGACGA	1.02
TGAAGCTGGT	0.999
ACTCGTGTTT	1
TGTGGAAAGT	0.977
CTCCACGGCC	1.73
GTTATAGATC	0.979
GTGCCTGGAG	1
GACCCATATC	1.06
GAATGTCCGG	0.987

Sequence	switch fluorescence ratio
TATCGCCTA	1
GCAGCGAAAT	1.07
GGGTCGGGCG	0.998
AGTTTATTCG	0.973
GTTCGGGTC	0.954
ACTCATTGGC	1.06
GGCGTACGCA	1.05
TATTCCTCAG	1.29
GCCCCCCAGC	1.57
TCTTTGAGCC	0.982
TGAAGAATAG	0.972
GTAACAAGGT	0.996
TGAGTTTACA	0.995
TTTAATGAAG	1.03
CGTGATCGA	0.989
CAACAGTACA	1.21
GAGTCACTAA	1.06
TAGTCCGTTA	1.05
GTGGGAAACA	1.02
TGTGTGACAT	0.995
TGGACTGGG	0.99
TCGTGGCATT	0.957
TTACGGTGGG	0.974
ATCAATCACT	0.992
TAGATTTTAC	1.02
TGATGCCAGA	1.01

Sequence	switch fluorescence ratio
GGGATCCGAA	0.961
AATCGGGTGA	1.08
ATGCTCGGAT	1.16
GCTGGGCATG	1.01
CTAGACGTTG	1.01
AACGGCGCCG	1.01
TGAGGAAGAG	0.99
TTTAACTGTA	0.962
TTGCGTTTGG	0.961
GATCGATCAA	0.993
GACTACTATG	1.05
TAGCTGGGGT	0.989
GGAAGAACTA	1.01
CAAACCTTAG	1.22
TCTAGTGGGT	0.994
GAGCGGGTAG	1.04
TGTGTCTAGC	0.972
CGTTAAAGCT	1.13
ATAAATTGTG	0.985
GTCATTGAAT	0.928
GAAGGTAGCG	0.923
ATGCGTACAG	0.99
ATTTGTGGCA	0.986
